Values marked as one replicate rest on one cluster of the flow cell; about a third of the high ones do not repeat.
Test system: ATP
Experiment: switch fluorescence ratio, 500 uM ATP over buffer (Cy3 cluster intensity, sum of 5 cycles each) (fold (ratio)); higher = stronger signal-on switching upon ATP binding; sequences stand for … in TCGTCGGCAGCGTCAGATGTGTATAAGAGACAGTTTTTTTTTTTTTTTTTTTTTTTTT…TC
Settings: aptamer strand: ATP DNA aptamer (quencher-CACCTGGGGGAGTATTGCGGAGGAAGG + anchor), 100 nM annealed; ATP concentration: 500 uM; one replicate
Procedure, shortened: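 Switching-strand clusters labelled with Cy3 on a modified Illumina MiSeq flow-cell were annealed to 100 nM quencher-labelled ATP aptamer, imaged in selection buffer, and re-imaged after 15 min with 500 uM ATP at 22 °C. This was done over five cycles with NaOH stripping and re-annealing in between. The fluorescence ratio is summed target-cycle over summed buffer-cycle Cy3 intensity per cluster, averaged per switch-domain sequence, excluding clusters outside 100-1000 RFU.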
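Further: ATP exposure 15 min at 22 °C before imaging.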

Row | Sequence | switch fluorescence ratio
1 | AGATCCTGGT | 1.05
2 | ATAACTATCC | 1.07
3 | CTGGGTTATC | 1.01
4 | AGAACACGCG | 1.04
5 | AGTGATCGG | 1.03
6 | TGCTCGGAAT | 1.23
7 | TGTTAATTAA | 0.997
8 | CGCTATCCGT | 1.04
9 | GCTTGGCGCC | 0.998
10 | TGTGAAAATG | 0.961
11 | GATTCGTGGT | 0.945
12 | TTGTCTCTGG | 0.973
13 | TGTCGGTT | 1.03
14 | CAATTAGCAA | 2.01
15 | CCTGAAAGTT | 1.11
16 | AGGCTGTGTG | 0.993
17 | GGCCCATCTT | 0.939
18 | CAGGCATTAA | 1.05
19 | TACACACAGA | 1.26
20 | AATTTCTATG | 0.996
21 | TTGTATTATC | 1.02
22 | ATCCTCCCTT | 1.3
23 | GCACGTAGGG | 0.995

Row | Sequence | switch fluorescence ratio
24 | GCGTTTTATC | 1.03
25 | TGCTTCTTAC | 1.13
26 | TGTAACTAGT | 1.03
27 | AGTAGCTCCG | 1
28 | AAGCTGGGCT | 1.03
29 | ATAAGGGCCC | 0.981
30 | AAAACCTATG | 1.01
31 | GGGTCCGCCA | 1.71
32 | AGGGAGTAGA | 0.988
33 | CAGTTTGAGG | 0.942
34 | AGTTCTCATG | 0.97
35 | ACGGTCAACG | 0.963
36 | GAATGCATCG | 0.978
37 | CTCGGGGGCG | 1.1
38 | TATGAACGTT | 0.989
39 | TGTATTAGCA | 0.976
40 | GCTGTTATCA | 1.04
41 | CAGGCTGGTG | 1.07
42 | AAGTTTGCAC | 1.05
43 | TTTGGGTAGC | 1.01
44 | CGTGCAGTCC | 1.07
45 | CGTTTCATAA | 0.978
46 | ATCTACGCTT | 1.38

Row | Sequence | switch fluorescence ratio
47 | CCGCGGCTCA | 3.42
48 | CGTCGGCACA | 1.03
49 | TACTGCACCT | 1.15
50 | TGTTACTTTA | 1.04
51 | GAATGCTGCG | 0.935
52 | CAGTACTGTA | 1
53 | TTCAATTCGC | 1.11
54 | TAAATCGCGC | 1.03
55 | AATCAATTAG | 0.941
56 | TATCACGAGA | 1.05
57 | ACGTCGGTGA | 0.987
58 | ATAATGAACG | 1.05
59 | CTAGCTA | 1.04
60 | CGGTAATCTC | 1.21
61 | GAGTATATCT | 1.05
62 | TGGATCCCTT | 1
63 | AAAGGGGCGT | 0.981
64 | AGCACTTATT | 1.03
65 | AATGATCGAT | 1.03
66 | TTGATTTGGA | 1.07
67 | GGCAGAGCTT | 0.981
68 | GCGATACACG | 1.19
69 | TAGCGTATTT | 0.991

Row | Sequence | switch fluorescence ratio
70 | CGGGAAAACA | 0.99
71 | AAAATTGGAT | 1
72 | TCAATCTAGA | 1.04
73 | AGCCCACCGC | 1.17
74 | CTTGTTGTT | 0.979
75 | TGCAAACATT | 1.03
76 | GCGCAAGCTT | 1.03
77 | AGAGGGTGTA | 1.02
78 | TATTCGTACA | 0.974
79 | TCAAAGATGG | 0.986
80 | GCACTCGCTG | 1
81 | CGAAAATTGA | 0.965
82 | ATTGATGCAC | 1.04
83 | CGGAAAAGAA | 0.99
84 | GCCACCTAGG | 1.05
85 | GCGGTTTACT | 0.955
86 | CCGGGAAATC | 1.3
87 | CATATAAGAG | 0.981
88 | CTAAATTATA | 0.975
89 | AAAGGTGATC | 0.944
90 | CCCACAAGCC | 2.38
91 | ATTTGCATG | 0.994
92 | TGGTTAATGT | 0.978

Row | Sequence | switch fluorescence ratio
93 | TATTTTCTA | 0.971
94 | TAGACTAGCT | 1
95 | CCGATTATTA | 1.03
96 | GCTGTCTGTC | 0.981
97 | TTTTCCTAAG | 1.03
98 | AGATATGCAT | 0.997
99 | ATCTCCGATT | 1.04
100 | AACGTAGAAC | 1.05
101 | ATCGTATCAT | 1.01
102 | ATCATGGAAA | 0.965
103 | GATGTTGACC | 0.991
104 | CTTGTAGTTT | 0.973
105 | TTTGTGTA | 0.981
106 | TGGTGTTATG | 0.966
107 | CTAGCATGGC | 1.03
108 | ACTTGGTTGA | 1.03
109 | CTTACACAGC | 1.18
110 | TGCCGATCCT | 0.969
111 | TTACACAAAC | 1.07
112 | GTTAAAACGT | 1.02
113 | GCAGGTTGTT | 1.02
114 | CGTACTGCAG | 1.16
115 | ACTGTGGATT | 0.987

Row | Sequence | switch fluorescence ratio
116 | CACGAAGGGA | 0.938
117 | GCTAGTACAT | 0.97
118 | ATAGGTAAA | 1.05
119 | GGTCCCGCA | 0.995
120 | TTTGGTGACA | 0.993
121 | AGTATGCGC | 0.98
122 | TTCGGCAAAA | 1.24
123 | GGTATGAATT | 1.03
124 | TAATATCTCA | 0.978
125 | TGACATAGAT | 1
126 | TAACTTGGCT | 1.02
127 | AAATATTGT | 0.978
128 | GAGTAGTAGG | 0.954
129 | ATCGCGCGTA | 0.979
130 | CAGCGGTGG | 1.01
131 | CATGCTTCCT | 1.23
132 | TCCTTTCTCT | 1.18
133 | CTAGCCTTTT | 0.999
134 | TGGGCTCAGA | 1
135 | GACGGTAGCA | 1.19
136 | ATCTGTCCGC | 1.37
137 | TGGCGCTTGC | 0.996
138 | ATAGTAGGCG | 1.03

Row | Sequence | switch fluorescence ratio
139 | TAGCGTCTTG | 0.946
140 | AACAGTAAAT | 1.02
141 | TGAATAATGC | 0.953
142 | CCGTAGGCAC | 2.87
143 | CGGAGGGGA | 1.01
144 | AGCAGAAAGC | 1.05
145 | TTGCAGTTTC | 1.02
146 | CGGAATGTAG | 0.986
147 | TGCGAGTGGG | 0.999
148 | TTGTCGATCA | 1.04
149 | CAGCCCTGCT | 0.979
150 | ACGGCACAGT | 1.39
151 | GACGACTAAG | 1.09
152 | GCCATCCGGC | 1
153 | GCGGATCCGC | 1.01
154 | ATTGTAGAAC | 0.973
155 | TTTAGAACAT | 0.989
156 | CCAATGGGA | 1.04
157 | TACTGCGACC | 1.31
